The results in this text go back to article PMC12136788.

The labels stand for the following.
B1: chr19:8913615:8913616:-_ENSMUSG00000071658_ENSMUST00000096259|mus_hu|mus_mus_mus_hu_False|1_108 (ssRNA)
RNA: GGGAGUUCUACAGUCCGACGAUCAGGGGGGCACCAACUUCUGCCUGAAAUGGGUGCCCCACCCAGUAGGGAGUUGCAGCUGAAAGUAUCUGAUGCAGAAGCAGUGACUAUACGAAAGGAGGCCCCUGGGGAGGGCCCGAGAUCCAACAGAGGAUUGAGCAUCA
B2: chr6:13786029:13786030:-_ENSMUSG00000048216_ENSMUST00000115492|mus_hu|FALSE|FALSE (ssRNA)
RNA: GGGAGUUCUACAGUCCGACGAUCAAAAACUCUCCAAUAACAGGCCACCAGGUAGGGGCCCCACAAGGUUAGAAACAGAAAAGUCAUUAUAUAGAACAUUCUGCUGAUUCUUUUCUCCAUUUUGAACUCGUCUAAGACCAAUAGCAACAGAGGAUUGAGCAUCA
B3: chr8:95500983:95500984:-_ENSG00000164944_ENST00000437199|hu_hu|hu_hu_hu_mus_True|8_58 (ssRNA)
RNA: GGGAGUUCUACAGUCCGACGAUCAGAACACAUCUAUCGAGUAAAGGACCGUACAUGACGGCCUCUACCACUGCCUCCCACUAACAACUUUCCUCUCGAGCCUCCACUGCCGCUAUUUGUACUAGCCCCAGGAAGGUCCAGGCCCAACAGAGGAUUGAGCAUCA
B4: chr4:17845017:17845018:+_ENSG00000109805_ENST00000514176|hu_mus|hu_hu_hu_mus_False|1_98 (ssRNA)
RNA: GGGAGUUCUACAGUCCGACGAUCGCUCUCUUAACUUGAUCUUCAUUUAAGGAACUCUGCAAGGUUAAGUUUACUUUUCUGUAGCGCAGCUGUUUUGGCUCGUCUGGGUAAUCUCAUCUUCAUUUCUGAUGGUGGUUUGGAACUCAACAGAGGAUUGAGCAUCA
B5: chr3:10168198:10168199:+_ENSG00000254999_ENST00000256463|hu_hu|FALSE|FALSE (ssRNA)
RNA: GGGAGUUCUACAGUCCGACGAUCUGUCUCAAAUACAUUGACAAGUAGAUGUAUAAAAUGUUACUGAAAAGGUAAAAUGCCUAACGUCGUUUCCAACGGUUCCUCUGAACUUCUUCCCACAUACCACACCACACCCCAGAUGGCCAACAGAGGAUUGAGCAUCA
B6: chr14:66974463:66974464:+_ENSMUSG00000022044_ENSMUST00000074523|mus_hu|mus_mus_mus_hu_False|58_58 (ssRNA)
RNA: GGGAGUUCUACAGUCCGACGAUCUUGUAGGACGACUUAUUCAGGGGAUCGGCCAGGAAGCAGGAGCAGAACAAGGACACUAGUGGGAGCUCCUUCAUCUUCUCUUUGUAGGCAGCAAGGGUCAUGUUUCUGGGAUCUGGUGGCCAACAGAGGAUUGAGCAUCA
B7: chr2:241070490:241070491:-_ENSG00000172428_ENST00000607357|hu_hu|FALSE|FALSE (ssRNA)
RNA: GGGAGUUCUACAGUCCGACGAUCAGGGCUUGGCCCCGCCUGCAGCCAGAGGGCAUCUCACUGGAUGUCAUCAUCAUCAAAAAGAUCUUCAAAAUCGUUAAAAAAGUCUGCAUGAACGGCCUUUUCAUUGGCUGCCAAGUCCAUCAACAGAGGAUUGAGCAUCA
B8: chr2:136540380:136540381:+_ENSG00000144224_ENST00000272638|hu_hu|motif|central (ssRNA)
RNA: GGGAGUUCUACAGUCCGACGAUCGGAAUUUCCAUUCCAAGUGUUGUUUUCAUCUUCACCAUCAUCUUGAGUCCUUAAUCGGUAAAUUUUCCCCUCCUUUUUAAAGUCGUCUCCACGUUUUUCCAGCACUCUUUUUCUCACUGGCAACAGAGGAUUGAGCAUCA
B9: chr4:110743517:110743518:+_ENSG00000109534_ENST00000226796|hu_mus|motif|central (ssRNA)
RNA: GGGAGUUCUACAGUCCGACGAUCUUUCUCACCAGGAGGACGAGGCAGAAACCUCUGCAGCGGCAGCAGCUUGUAUGGGUCGGUAUAGAACUUCUGUAGCUUUUUAAAGGAAGAUGCCUUCAUGUUUUCUGACAACUUAACUGACAACAGAGGAUUGAGCAUCA
B10: chr3:10015032:10015033:+_ENSMUSG00000027533_ENSMUST00000029046|mus_mus|mus_mus_mus_hu_True|38_58 (ssRNA)
RNA: GGGAGUUCUACAGUCCGACGAUCGUUUUUACCAUCACAAGUGAUGAUACAAUCUGGCUUGGCCAUUGCGCCCAUUUUCCUAAGAGCUAUUCCCACUCCUAGCUCUUUCAUGUAUUCAUCAAAGCCUUUGCUGUCCACCAGGCGCAACAGAGGAUUGAGCAUCA
B11: chr2:47387792:47387793:-_ENSG00000143933_ENST00000272298|hu_hu|hu_hu_hu_mus_True|8_28 (ssRNA)
RNA: GGGAGUUCUACAGUCCGACGAUCUAAGGACAAUGACAGUAAGAUAAGGGAAGAAAACAUGGAGGAAUGAAGUCCUAAUUACUAUACAUGCAUAUUUUUUGACAGUAAGGGAGAAACACCUUUUACAUAAGUUACAAAAACAAACAACAGAGGAUUGAGCAUCA
B12: chr2:129997582:129997583:-_ENSMUSG00000027404_ENSMUST00000103199|mus_mus|FALSE|FALSE (ssRNA)
RNA: GGGAGUUCUACAGUCCGACGAUCGGGAGGGAGCCCUGAAAGGGAAACCAGACAAUCCAGGGAGACUCCAUGAACUGCAUAACAAACAAACAGGUCUGUGGUAACCUGACCCUGGGGAACAGGGUCCACAUCGCCUCUGAGCUACAACAGAGGAUUGAGCAUCA
B13: chr5:66692119:66692120:-_ENSMUSG00000029207_ENSMUST00000159786|mus_mus|FALSE|FALSE (ssRNA)
RNA: GGGAGUUCUACAGUCCGACGAUCAAGGACAACGGGCUUACGGUAAGUGGCCAUUUUCCUUAACUCACUGGGGAGUUCUGAGAUUGCCUGACAGUAUUCCUGUUCACUGUGUGGCCCCAGAGUCCUUUGUGAAGGGUCCUCCUGCAACAGAGGAUUGAGCAUCA
B14: chr3:52741720:52741721:+_ENSG00000114902_ENST00000602728|hu_mus|motif|central (ssRNA)
RNA: GGGAGUUCUACAGUCCGACGAUCGUAGAUAGGCCAUGGAGGAAGUGUCAGCAAACAGGAGAAAGCAAAUCCGGCCAUAACGGUGUAGACAGUCCACCCAAACUGUUCAGCCACGUACCCGUAGAUAAACCCAACUAUUGCAGACAACAGAGGAUUGAGCAUCA

This is one part of the list.

The test concerns the target T1, UNK ZnF1-3 (human, UniProt Q9C0B0 31-174).
T1 sequence: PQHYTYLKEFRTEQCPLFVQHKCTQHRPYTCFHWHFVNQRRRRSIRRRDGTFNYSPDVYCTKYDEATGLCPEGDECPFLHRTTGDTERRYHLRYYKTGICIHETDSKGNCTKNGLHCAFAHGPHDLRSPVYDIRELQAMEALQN
Nature of the test: nsRBNS (natural sequence RNA bind-n-seq); RBNS binding buffer (assumed for nsRBNS): 25 mM Tris pH 7.5, 150 mM KCl, 3 mM MgCl2, 0.01% Triton X-100, 500 ug/ml BSA, 20 U/ml SUPERase-In, 4 C; UNK is unkempt and MSI1 is Musashi-1; names of the RNAs are library labels; protein concentration not given here; high values mean tight binding.
Consider B1, for which the binding signal came to 0.944 enrichment R.

Consider B2, for which the binding signal came out at 1.01 enrichment R.

B3 yielded a binding signal of 1.07 enrichment R.

Regarding B4, the binding signal stood at 0.465 enrichment R.

Consider B5, for which the binding signal was 1.15 enrichment R.

Take B6: the binding signal came out at 2.26 enrichment R.

B7: the binding signal came out at 1.33 enrichment R.

In turn, B8 had a binding signal of 0.445 enrichment R.

Regarding B9, the binding signal worked out at 1.22 enrichment R.

As to B10, the binding signal was determined as 0.559 enrichment R.

Turning to B11, the binding signal was 2.14 enrichment R.

On to B12, for which the binding signal turned out to be 1.11 enrichment R.

The molecule B13 yielded a binding signal of 0.607 enrichment R.

B14 yielded a binding signal of 1.63 enrichment R.
